Measurements taken from article PMC5155157, “K63-polyubiquitinated HAUSP deubiquitinates HIF-1α and dictates H3K56 acetylation promoting hypoxia-induced tumour progression” (Nature Communications, 2016).

Target: T1, His-HIF1α1–400 (UniProt Q16665, in part)
T1 construct: HIF-1α, a.a; 1–400; also called N-terminal (a.a. 1–400) domain of HIF-1α
Test: pull-down; His-HIF1α protein incubated with GST-HAUSP protein and Glutathione-Agarose; pulled down His-HIF1α detected by Western blot
Conditions: both partners purified

B1: GST-HAUSP[…] (domain or fragment)
chain: MNHQQQQQQQKAGEQQLSEPEDMEMEAGDTDDPPRITQNPVINGNVALSDGHNTAEEDMED[about 150 residues not shown]
notes: HAUSP (USP7), a.a; source: purified GST protein
binding result: binds
